Results reported in PubChem BioAssay AID1466 (National Center for Advancing Translational Sciences (NCATS), 2008).
The campaign covered roughly 200,000 compounds. About 10 (0.005%) were called active. The inconclusive results got no clear call from the source; some entries with a clear call stand among them for comparison. Calls come from the whole dose curve; as a rule, active = well fitted inhibition curve with a large enough effect; inconclusive = small, poorly fitted or top-dose-only effect, or effect the other way, or another doubt; inactive = no such curve, though single readings can be large or run the other way. No potency is given beside an inconclusive call; the fits are too rough.

Target: Lysosomal alpha-glucosidase (Homo sapiens) (UniProt P10253)
Test: qHTS Assay for Inhibitors of Human alpha-Glucosidase as a Potential Chaperone Treatment of Pompe Disease;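 for activity change, negative = inhibition: plate controls were uninhibited enzyme wells for no effect and no-enzyme background for full effect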
Conditions: purified human GAA, 4-MU-alpha-glucoside fluorescence; activity change, negative = inhibition: at 76.9 µM (top of the series) unless noted
How it was run: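 qHTS format, compound range up to 77 uM. Human lysosomal enzyme at 4 nM, 400 uM 4-MU glucoside substrate, pH 5.0, 20 min room temperature; fluorescence after alkaline stop gives activity normalized to controls.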
Potency is the fitted concentration of half-maximal effect; tags give direction and shape of the fitted curve.

Structure (SMILES)	activity change, negative = inhibition	Potency
CCOC(=O)c1cccc2c1-c1ccccc1/C2=N/O	inconclusive: -16.7% [inhibitor]	
Cc1ccn2c(NCc3ccc4c(c3)OCO4)c(-c3ccc(O)cc3)nc2c1	inactive: -0.492%	
COC(=O)c1ccc2nc(Nc3nc4c(F)cc(F)cc4s3)sc2c1		inconclusive [activator, full curve]
COc1ccc(CCNC(=O)CC2Nc3ccccc3NC2=O)cc1 (stereo unspecified)	inconclusive: 20.2% [activator]	
Cc1cc(NC(=O)Cc2cn3ccsc3n2)n(-c2ccccc2)n1		inconclusive [inhibitor, single point]
O=C1CC(=O)C(n2cncn2)C(c2ccc(Cl)cc2)C1 (stereo unspecified)		inconclusive [inhibitor, single point]
COc1ccccc1N(C(=O)c1snc(C(N)=O)c1N)C(C(=O)NCCC(C)C)c1ccco1 (stereo unspecified)		inconclusive [activator, single point]
Cc1ccc(NC(=S)NCc2ccccc2)cc1S(=O)(=O)N1CCCCC1		inconclusive [inhibitor, full curve, poor fit]
CC1CN(S(=O)(=O)c2cccc(C(=O)OCC(=O)Nc3ccc4c(c3)OCO4)c2)CC(C)O1 (stereo unspecified)		inconclusive [inhibitor, full curve, poor fit]
CCOC(=O)N1CCC(NC(=O)c2ccc3c(c2)N(Cc2ccc(F)cc2)CCS3)CC1		inconclusive [activator, partial curve]
COc1ccc(/C=N/NC(=O)CC(=O)N/N=C/c2ccc(OC)cc2)cc1	inactive: 3.35%	
Cc1c(C)n(Cc2ccccc2)c2ccc(C(=O)OCCN(C)C)cc12		inconclusive [inhibitor, partial curve]
C=C(C)c1cccc(C(C)(C)NC(=O)Nc2ccc(C(N)=O)cc2)c1	inactive: 0.0164%	
Cc1cc(-c2nn(-c3ccccc3F)cc2CNCCc2cnccn2)c(C)s1		inconclusive [inhibitor, single point]
COCCNC(=O)CSc1nnc(-c2ccccc2F)n1Cc1ccccc1		inconclusive [inhibitor, single point]
N=C1S/C(=C\c2cccc3ccccc23)C(=O)N1c1ccc(F)cc1		inconclusive [inhibitor, partial curve, poor fit]
CCC(=O)NC1=C(Cl)C(=O)C(NC(=O)CC)=C(Cl)C1=O	inactive: -7.6%	
O=C(CC12CC3CC(CC(C3)C1)C2)NCC(=O)OCc1cc(=O)oc2ccc3ccccc3c12		inconclusive [activator, partial curve]
CCOC1OC2C(CO)OC(n3cnc4c(N)ncnc43)C2O1 (stereo unspecified)		inconclusive [inhibitor, full curve]
Cc1cc(C)nc(SC2CCCCC2NS(=O)(=O)c2ccc(Cl)cc2)n1 (stereo unspecified)		inconclusive [inhibitor, partial curve, poor fit]
N#CC(c1nc2ccccc2nc1N1CCCC1)S(=O)(=O)c1ccccc1 (stereo unspecified)		inconclusive [activator, single point]

Structure (SMILES)	activity change, negative = inhibition	Potency
CCc1cc(=O)oc2cc(OC(C)=O)cc(OC(C)=O)c12		inconclusive [activator, partial curve]
O=S(=O)(c1cccc2cccnc12)N1CCN(c2ccccc2)CC1		inconclusive [inhibitor, partial curve, poor fit]
NC(=O)CC1Nc2cccc3cccc(c23)NC1=O (stereo unspecified)	inactive: 7.26%	
O=c1oc2c(CN3CCN(CCO)CC3)c(O)ccc2cc1-c1ccccn1		inconclusive [activator, partial curve]
COc1ccc(Cl)cc1NC(=O)CN(C)CC(=O)Nc1ccc(C)cc1Br		inconclusive [inhibitor, single point]
Cc1ccc(/C=N/n2c(-c3ccncc3)n[nH]c2=S)o1	inconclusive: 3.7% [activator]	
COc1cnc(-c2ccccn2)nc1Sc1ccc(C)cc1		inconclusive [inhibitor, single point]
CCC1OC23CCCCC2C(C#N)(C(=N)O3)C1(C#N)C#N (stereo unspecified)		inconclusive [activator, partial curve]
CC1(NC(=O)COc2ccccc2-c2ccccc2)CCS(=O)(=O)C1 (stereo unspecified)		inconclusive [inhibitor, single point]
COC(=O)/C(=C/c1cn(C)c2ccccc12)[N+](=O)[O-]		inconclusive [inhibitor, single point]
CCNc1nc(NCC)nc(N/N=C/c2ccc(N(C)C)cc2)n1		inconclusive [activator, single point]
CC(=O)N/C(=C/c1ccc2c(c1)OCO2)C(=O)NCc1ccccc1		inconclusive [activator, single point]
COC(=O)CN1C(=O)C2(C(C#N)=C(N)Oc3ccccc32)C2=C1CC(C)(C)CC2=O (stereo unspecified)		inconclusive [inhibitor, single point]
Cc1cccc(Cn2c(SCCO)nc3c2c(=O)n(C)c(=O)n3C)c1		inconclusive [inhibitor, partial curve]
CCCCC(CC)Cn1c2nc3ccccc3nc2c2c(=N)oc(C)nc21 (stereo unspecified)		inconclusive [activator, partial curve]
O=C(COc1ccc(S(=O)(=O)NC2CCCCC2)cc1Cl)NCC1CCCO1 (stereo unspecified)		inconclusive [inhibitor, single point]
CC1CC(=O)C2=C(C1)Nc1nc3ccccc3n1C2c1cccnc1 (stereo unspecified)		inconclusive [activator, partial curve]
Cc1cccn2c(=O)c3cc(C#N)c(=O)n(CCCN4CCOCC4)c3nc12		inconclusive [activator, partial curve]
CCNC(=S)N/N=C(\C)c1ccc(Cl)s1		inconclusive [inhibitor, single point]
COc1ccc2cc3cc(C(=O)NCC4COc5ccccc5O4)oc3nc2c1 (stereo unspecified)		inconclusive [activator, partial curve]
